Laboratory results published in the supplement of paper PMC11417369.
The other results are listed elsewhere or left out.

Tested on: PfSIP2 AP2 domain 1 (GST-tagged)
Assay: gcPBM binding intensity (ln(normalized median fluorescence intensity)); higher = stronger DNA binding
Summary of the method: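 An Agilent 4 × 180k array carrying primer-extended double-stranded 36-bp intergenic genomic probes and negative controls received GST-tagged P. falciparum DNA-binding domains expressed in E. coli, about 25 μg on average, for 1 h. The binding buffer contained 1× PBS, 1% milk, 0.2 mg/ml BSA, 0.5% salmon testes DNA and 0.03% Triton X-100. Binding intensity is the top Masliner-normalised natural-log median intensity across replicate spots of either probe orientation, read after Alexa488 anti-GST antibody staining and a 488 nm scan.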

Going from “TTTGAAAAAAAATATTGTACACGTGAATAAAGTATT [XGTACX_site644]” to “TTGCATCTATTTTTGAGTACACAATGAGAATAATTA [XGTACX_site7171]”, the “gcPBM binding intensity (ln)” value rises from 7.01 to 7.34.

First: AAAAAAAAAAGACACACACACACATACACATACATA [CACACA_site7362]
Second: TATATATATATATATATATATATATATATAATTTGA [XGTACX_negctrl_site3]
The “gcPBM binding intensity (ln)” value of the first is lower: 7.09 for the first, 8.92 for the second.

First: TTATTATATATGTTCACATAAATACATAAATATATA [GTGCAC_negctrl_site529]
Second: TTAAAAAAGTAATTAACACACAATAATGTAATGCAT [CACACA_site4176]
The “gcPBM binding intensity (ln)” value of the first is higher: 6.94 for the first, 6.72 for the second.

Going from “ACCCAAAATATATTCACACAAAAAATATTAAAAATA [CACACA_site5433]” to “TAATATATATAACAAGTGCAAAAAAATATAGATATT [GTGCAC_site9625]”, the “gcPBM binding intensity (ln)” value rises from 7.12 to 7.98.

Going from “AATAAACAAATAAATAAATAAACAGATAAATAAATC [CACACA_negctrl_site920]” to “AAGCATCCTACTGATTGTACATATATATATATATAT [XGTACX_site2150]”, the “gcPBM binding intensity (ln)” value rises from 6.78 to 9.38.

Going from “GAGAACATTGATACACGTACATAAGTTATAAGTATT [XGTACX_site7665]” to “TTAGGTTATAAATACACACACAAAAGAAAAAAAAAA [CACACA_site5625]”, the “gcPBM binding intensity (ln)” value rises from 6.88 to 6.9.

Compared with “TATTTAAATTAATATTGTACATATATTTATAATATA [XGTACX_site6109]”, “TTTATTTATATAATTACACACATATATACACAAATG [CACACA_site8903]” is higher in “gcPBM binding intensity (ln)” value: 6.82 for the first, 7.21 for the second.

Compared with “AAATATATTATATATGCATGCGCCAAGATTTATATA [TGCATGCA_site770]”, “TATATATATTCTTTGTGTACTCATATAAGGGTAGAA [XGTACX_site8121]” is higher in “gcPBM binding intensity (ln)” value: 6.98 for the first, 7.47 for the second.

First: TTTTTAGAAAAGGTTATAAAAAATTAATTGAAAAAA [GTGCAC_negctrl_site289]
Second: AATCAATATTATATATGTACTTATTTTCACTTTTGC [XGTACX_site1775]
The “gcPBM binding intensity (ln)” value of the first is lower: 6.78 for the first, 6.91 for the second.

Compared with “TTGTCATTATTATATTGTACAATAAGTATTAAAGAA [XGTACX_site1205]”, “AACTGATATTAATTCTGTACCTATACGTTATATGTT [XGTACX_site1003]” is lower in “gcPBM binding intensity (ln)” value: 7.21 for the first, 6.95 for the second.

Compared with “TATGAACATATATATTGTACAAAATTATAATTTCAA [XGTACX_site6406]”, “AAGCGAATCTATATCACACACAAAAAAATCAGACTA [CACACA_site7072]” is lower in “gcPBM binding intensity (ln)” value: 6.99 for the first, 6.94 for the second.

Going from “AGTTCAGAATTGAATAGTACATAAATATAACAAAAT [XGTACX_site650]” to “ATATATTATATTATATGTACTTAAAAAAGTGCAAAG [XGTACX_site318]”, the “gcPBM binding intensity (ln)” value rises from 7.46 to 8.67.

First: TATATTCAATTTTTGGTGCGTAAATTAATACAAACA [GTGCAC_site9764]
Second: ATGCACGGAAAAATATGTACTTAATTTCAATAATAT [XGTACX_site8311]
The “gcPBM binding intensity (ln)” value of the first is higher: 8.85 for the first, 7.32 for the second.

Going from “CGGACATACTAACGGACACACGTAAGAAAAAAAAAG [CACACA_site4504]” to “TTTTTTCAATAAATAATCGTATATTGAATAATAATA [CACACA_negctrl_site822]”, the “gcPBM binding intensity (ln)” value falls from 6.95 to 6.66.

Compared with “AGAGAGAACGGTATAACATGCGATAAATTTTAGAAG [TGCATGCA_site357]”, “TATATGTCCATATTTCCACACACATATTATTTTTAT [CACACA_site9266]” is higher in “gcPBM binding intensity (ln)” value: 6.92 for the first, 6.98 for the second.

First: TATTAATTTTTCCTTTTTTTTTTACCCCTTTGTACA [CACACA_negctrl_site947]
Second: ATTTTAATTTTGTATACACACATTTGAATTATTAAT [CACACA_site3528]
The “gcPBM binding intensity (ln)” value of the first is higher: 6.91 for the first, 6.89 for the second.

Compared with “AAATAATACATTCGTACTACACATATATATTAAATA [XGTACX_site7806]”, “AATATATACATATATACACACACATATATATATATA [CACACA_site8907]” is higher in “gcPBM binding intensity (ln)” value: 7.09 for the first, 9.22 for the second.

Compared with “TAAAATGTTATAAGAACATGCAATTCCTTTTATTAT [TGCATGCA_site408]”, “ATAATATGAGTCCCACAAAATAGACCATACGAATAT [CACACA_negctrl_site50]” is higher in “gcPBM binding intensity (ln)” value: 6.82 for the first, 6.92 for the second.

Going from TATAAATTTATACCAGTGCATTTTGAAATATATATA to “TGGAACCATAAAAAGTGTACACATATAAAAAATATG [XGTACX_site96]”, the “gcPBM binding intensity (ln)” value falls from 9.08 to 7.13.

First: TATATATTTTATATATGTACATATTTATATGTTTCT [XGTACX_site1818]
Second: AAAAAAAAGTTATATACACACATATAAATATAAATA [CACACA_site6683]
The “gcPBM binding intensity (ln)” value of the first is lower: 6.85 for the first, 6.88 for the second.

Going from “TTTTTTTTTTTTTGAACACACATTATTAACTTTTAT [CACACA_site6281]” to “CGCGAACATACATACACACACATATATATATATGTA [CACACA_site205]”, the “gcPBM binding intensity (ln)” value rises from 7.01 to 7.13.

First: AAAAATATTAAAAGGCGTACAATACCTGTATGCAAC [XGTACX_site6069]
Second: CATGTAAAATATTAAAGTACATGATTATATATATAT [XGTACX_site7486]
The “gcPBM binding intensity (ln)” value of the first is lower: 7.17 for the first, 8.79 for the second.

Compared with “TATATTTATATAATATGTACATATTTTTTAATATTT [XGTACX_site3834]”, “TATTTTATTTTCCGAAGTACAAAAGCAAAAAAAAAC [XGTACX_site103]” is higher in “gcPBM binding intensity (ln)” value: 6.95 for the first, 7.44 for the second.

Compared with “AGCTAAAATATTTTTGCACACGATTTTTTTTTTTTT [CACACA_site1140]”, “TTCAATGCTAATTTATGTACATATGTATATAAAATA [XGTACX_site8335]” is lower in “gcPBM binding intensity (ln)” value: 7.18 for the first, 7.03 for the second.

Compared with “CCCAAAAAAAATTTATGTACTTATTAAATATATATA [XGTACX_site6455]”, TTTATATAAATTTAAGTGCAAAATGAACAAGTGAAA is higher in “gcPBM binding intensity (ln)” value: 7.28 for the first, 7.88 for the second.

Compared with “AAAATATATATTTGTTGTACAATATTAATTATTAAA [XGTACX_site1612]”, “TGCAAAGGTGAAAGAACACACAAAAAAAAAAAAAAA [CACACA_site4024]” is lower in “gcPBM binding intensity (ln)” value: 7.13 for the first, 6.91 for the second.

Compared with “TTTTTAATCTCATATGTATAATATATTTTTATTAAA [XGTACX_negctrl_site236]”, “AATTTTAGATTTAGCACACATTTTTTTTTTTTTTTT [CACACA_site6105]” is higher in “gcPBM binding intensity (ln)” value: 6.86 for the first, 7.58 for the second.

Going from “TTCAAAGGGAAATTAACACACACATATATATATATA [CACACA_site8777]” to “AAAAAAAAAAAAAGAACATGCGACTTTAAGAACTGG [TGCATGCA_site792]”, the “gcPBM binding intensity (ln)” value falls from 9.41 to 6.93.

With “TATGAAAATAAAATATGTACATATTTTAAATGTTAT [XGTACX_site7352]” the “gcPBM binding intensity (ln)” value was 7.22.
